Key:
[1] = tested on: Salmonella cholerae suis; experiment: Determination of minimum inhibiting concentration in vitro; conditions: ATCC10708, read-out: Minimum Inhibiting Concentration
[2] = tested on: Bacillus cereus mycoides; experiment: microbe, parasite or virus in culture; conditions: read-out: Minimum Inhibiting Concentration

Compound | MIC [1] | MIC [2]
CCCCCCCCCC[N+](C)(C)CCOC(=O)Cc1c(C)n(C(=O)c2ccc(Cl)cc2)c2ccc(OC)cc12 [RE 8, iodide of the ester of 2-N,N,N-dimethyl-decyl --amino-ethanol with 1-(p-chlorobenzoyl)-2-methyl-5-methoxy-3-indolyl-acetic acid] | 20 µg/mL | 10 µg/mL
CCCCCCCC[N+](C)(C)CCOC(=O)C(C)c1ccc(CC(C)C)cc1 (stereo not drawn) [AF 150, bromide of the ester of 2-N,N,N-dimethyl-octyl-amino-ethanol with p-isobutylphenyl-alpha-methylacetic acid] | 80 µg/mL | 10 µg/mL
N=C(NCCCCCCNC(=N)NC(=N)Nc1ccc(Cl)cc1)NC(=N)Nc1ccc(Cl)cc1 [Chlorexidine, Chlorexidine gluconate, reference compound] | 10 µg/mL | 10 µg/mL
CCCCCCCCCCCC[N+](C)(C)CCOC(=O)Cc1c(C)n(C(=O)c2ccc(Cl)cc2)c2ccc(OC)cc12 [RE 9, iodide of the ester of 2-N,N,N-dimethyl-dodecyl, amino-ethanol with 1-(p-chlorobenzoyl)-2-methyl-5-methoxy-3-indolyl-acetic acid] | 20 µg/mL | ≤ 5 µg/mL

Reference: EP0237495A2, “Halogenides of the ester of 2,N,N,N-dimethyl-alkyl-amino-ethanol with substituted acetic acid and pharmaceutical compositions having antiinflammatory and antiseptic activities containing same” (Sigma-Tau Industrie Farmaceutiche Riunite S.p.A., priority 1986, dated 1987)
